Results: PubChem BioAssay AID624296 (National Center for Advancing Translational Sciences (NCATS), 2012)
Out of some 350,000 compounds screened, about 9,900 (2.8%) were called active. The shares of active, inactive and inconclusive entries below differ from those in the screen. Calls follow the shape of the dose curve; as a rule, active = well fitted activation curve with a large enough effect; inconclusive = small, poorly fitted or top-dose-only effect; inactive = no such curve, though single readings can be large or run the other way. Potencies of inconclusive entries are left out as doubtful fits.

Experiment: A quantitative high throughput screen for small molecules that induce DNA re-replication in MCF 10a normal breast cells. Also: nearly all actives have a fitted effect of over 50% in size. As to activity, positive = re-replication: % of control where 0% means no effect.
Details: MCF 10A DNA re-replication, Hoechst nuclear intensity, 48 h; activity, positive = re-replication: at 46.1 µM (top of the series)
Potency is read from the fitted curve at half-maximal effect; tags tell the direction and shape of the fitted curve.

Row | Compound | Potency | activity, positive = re-replication
1 | CC(=O)Nc1ccc(Nc2cc(C)nc3c(-c4ccc(Cl)cc4)c(C)nn23)cc1 | inconclusive [activator, single point] | 
2 | O=C(Cc1ccc(-c2ccccc2)cc1)NCc1ccccc1 | active: 0.116 µM | 
3 | Cc1nc(SCC(=O)NCC2COc3ccccc3O2)c2c(C)c(C)sc2n1 (stereo unspecified) | inconclusive [activator, single point] | 
4 | COc1cccc2cc(C(=O)N3CCc4ccccc4C3)c(=O)oc12 |  | inactive: -0.699%
5 | O=C(NCc1ccccn1)c1ccc2ccccc2n1 |  | inactive: -2.1%
6 | NC(=O)NC(=O)C(Nc1ccc(N2CCCCC2)cc1)c1ccccc1 (stereo unspecified) | inconclusive [activator, single point] | 
7 | CCOc1ccc(N=C2NC(=O)S/C2=C\c2ccc(N(C)C)cc2)cc1 |  | inactive: 13.5%
8 | COC(=O)c1nn2c(C(F)(F)F)cc(-c3ccc(Br)o3)nc2c1Br | inconclusive [activator, partial curve] | 
9 | CCSc1nc(C)nc2sc(C)c(C)c12 |  | inactive: 13.2%
10 | COC(=O)c1cc(Cl)cc2c(C)c(C3(O)CCCCC3)[nH]c12 | inconclusive [activator, single point] | 
11 | COc1cccc(-c2nn(-c3ccccc3)cc2/C=C(\C#N)C(=O)NCCCn2ccnc2)c1 | inconclusive [activator, partial curve] | 
12 | Cc1ccc(-n2c(N)c(C(=O)NCc3ccco3)sc2=S)cc1 |  | inactive: 3.32%
13 | O=C(Cc1ccccc1)NCC(=O)Nc1ccccc1Br |  | inactive: -1.15%
14 | Cc1ccn2c(Nc3ccc4c(c3)OCO4)c(-c3ccc(O)cc3)nc2c1 | inconclusive [activator, partial curve, poor fit] | 
15 | N#C/C(=C\c1ccc(-c2ccc(C(=O)O)cc2)o1)C(=O)NCC1CCCO1 (stereo unspecified) | inconclusive [activator, single point] | 
16 | Cn1cnc2cc(NC(=O)c3ccco3)ccc21 | inconclusive [activator, single point] | 
17 | CCCn1c(N2CCN(CC(=O)c3c(C)n(C)c4ccc(OC)cc34)CC2)nc2c1c(=O)[nH]c(=O)n2C |  | inactive: 17%
18 | COc1cccc(C(=O)Nc2sc3c(c2C#N)CCN(C(C)=O)C3)c1 | active: 4.61 µM | 
19 | COc1cccc(-c2csc(N3CCN(C(=S)Nc4ccccc4C)CC3)n2)c1 | inconclusive [activator, single point] | 
20 | COc1ccc(NC(=O)CCC(=O)Nc2nnc(CC(C)C)s2)cc1Cl |  | inactive: -0.929%
21 | CCCSc1ccc([C@@H]2[C@@H]3C(=O)N(C)C(=O)[C@@H]3[C@]3(C(=O)OC)CCCN23)cc1OC |  | inactive: -3.31%
22 | O=C(Nc1ccc(Cl)c(Cl)c1)Nc1ccccn1 | inconclusive [activator, single point] | 
23 | CC(=O)Nc1ccc(Nc2ccc([N+](=O)[O-])cn2)cc1 |  | inactive: -1.94%
24 | COc1ccc(C(=O)Nc2nc3ccc(OC)cc3s2)cc1 | inconclusive [activator, full curve, poor fit] | 

Row | Compound | Potency | activity, positive = re-replication
25 | CCOC(=O)c1c(C)[nH]c(N=Nc2cccc(OC)c2)c1C | inconclusive [activator, single point] | 
26 | Cc1cc(-n2c(=O)c(C#N)cc3c(=O)n4ccccc4nc32)no1 | inconclusive [activator, single point] | 
27 | CC(C)C[C@H](NC(=O)c1nc[nH]c1C(=O)N1CCN(C(=O)OC(C)(C)C)CC1)C(=O)OC(C)(C)C | inconclusive [activator, partial curve, poor fit] | 
28 | O=C(NCCNC(=O)c1cccc(O)c1)c1cccc(O)c1 | inconclusive [activator, single point] | 
29 | CCOc1cc2c(C#N)c(N3CCCCC3)nc(N)c2c(N)n1 | inconclusive [activator, single point] | 
30 | CCOC(=O)c1sc2nc(C)nc(N3CCN(S(=O)(=O)c4ccccc4)CC3)c2c1C |  | inactive: -1.07%
31 | CN(C)N1C(=O)c2c(Cl)c(Cl)c(Cl)c(Cl)c2C1=O |  | inactive: -1.74%
32 | C/C(=N\Nc1nc2c(s1)CCCC2)c1ccccc1 | inconclusive [activator, single point] | 
33 | O=c1c2ccccc2nc(SCc2cccc(F)c2)n1C1CCCC1 | active: 18.4 µM | 
34 | CC1(C)c2[nH]c3ccccc3c2C[C@@H]2C(=O)N(Cc3ccccc3Cl)C(=O)N21 | inconclusive [activator, partial curve, poor fit] | 
35 | O=C(NC1CCCC1)C(c1ccco1)N(Cc1ccccc1)C(=O)c1csnn1 (stereo unspecified) |  | inactive: 1.79%
36 | C[C@]12CC[C@@H]3c4ccc(O)cc4CC[C@H]3[C@@H]1C[C@@H](O)[C@@H]2O | inconclusive [activator, single point] | 
37 | COc1ccc(-c2nn3c(-c4cccc(C)c4)nnc3s2)cc1OC | inconclusive [activator, single point] | 
38 | CCOC(=O)c1c(NC(=O)C(F)(OC)C(F)(F)F)sc(C(=O)N2CCCCC2)c1C (stereo unspecified) |  | inactive: -13.2%
39 | O=C(CCCCn1c(=O)c2ccccc2n(Cc2ccc(F)cc2Cl)c1=O)NCc1ccco1 | inconclusive [activator, single point] | 
40 | O=S(=O)(Cc1ccccc1)N(O)c1ccccc1 | inconclusive [activator, single point] | 
41 | Cc1cccc(Nc2nc(N3CCOCC3)nc(N3CCOCC3)n2)c1 |  | inactive: 5.15%
42 | COc1ccc(N2CCN(C(=O)CSc3ccccc3)CC2)cc1 |  | inactive: 6.16%
43 | CC(C)(C)C(=O)NC1CC2CCCC(C1)N2C(=O)Nc1cccc(Cl)c1 (stereo unspecified) | inconclusive [activator, single point] | 
44 | COCCCNC(=O)CNC(=S)N(Cc1ccccc1)Cc1cccnc1 |  | inactive: -0.0124%
45 | NC(=O)c1cc([N+](=O)[O-])ccc1NCc1cccc2ccccc12 | inconclusive [activator, single point] | 
46 | COc1ccc(/C=N/NC(=O)c2cccc([N+](=O)[O-])c2)cc1OS(=O)(=O)c1ccccc1 |  | inactive: 19.5%
47 | COc1ccc([C@H]2CC(=O)C=C(c3cc(C)ccc3OC)C2)cc1 | inconclusive [activator, single point] | 
48 | Cc1ccc(C(=O)Nc2ccc(-c3csc(C)n3)cc2)cc1 | inconclusive [activator, single point] | 

Row | Compound | Potency | activity, positive = re-replication
49 | Cc1ccc(Cl)cc1N1C(=O)CC(Sc2ncccn2)C1=O (stereo unspecified) | inconclusive [activator, partial curve, poor fit] | 
50 | O=C(Cn1cnc2c(nnn2Cc2ccc(F)cc2)c1=O)NCc1ccccc1 | inconclusive [activator, single point] | 
51 | CCN1CCCC1CNCc1ccc(Cl)cc1Cl (stereo unspecified) | inconclusive [activator, single point] | 
52 | C=CCNc1nc(-c2c(C)nc3sccn23)cs1 |  | inactive: 13.3%
53 | Cc1[nH]nc(-c2ccc(OCc3cnn(-c4ccccc4)c3)c(C)c2O)c1Oc1ccccc1 | active: 16.4 µM | 
54 | O=C(Nc1ccc(Cl)cc1)c1nc[nH]c1C(=O)N1CCN(c2ccccc2)CC1 | inconclusive [activator, partial curve, poor fit] | 
55 | O=C(NC(C(=O)c1ccccc1)N1CCOCC1)c1cccs1 (stereo unspecified) | inconclusive [activator, single point] | 
56 | O=C(N/N=C/c1[nH]c2ccccc2c1Cl)c1cccc(Br)c1 | inconclusive [activator, partial curve, poor fit] | 
57 | O=C(NN=C1CCCC1)c1[nH]c2ccc(Br)cc2c1-c1ccccc1 | inconclusive [activator, single point] | 
58 | C[C@]12c3[nH]c4cc(-c5ccco5)ccc4c3CCN1C(=O)[C@@H](CC(=O)NCc1cccc(C(F)(F)F)c1)C[C@@H]2C(=O)N1CCOCC1 | inconclusive [activator, partial curve, poor fit] | 
59 | O=C(Nc1ccc(N2CCCC2)c(Cl)c1)c1ccco1 |  | inactive: -4.51%
60 | COc1cccc(N2CCN(C(=O)c3cc4cc(Cl)ccc4[nH]3)CC2)c1 | inconclusive [activator, single point] | 
61 | CCOc1ccc(N2C(=O)CC(Cc3ccc(Br)cc3)C2=O)cc1 (stereo unspecified) |  | inconclusive: 105% [activator]
62 | COC(=O)C(NC(=O)C(NC(=O)c1ccccc1)C(C)C)C(C)C (stereo unspecified) |  | inactive: -2.32%
63 | Cc1cccc(C(=O)N2CCNC(=O)C2CC(=O)Nc2cccc(Cl)c2)c1 (stereo unspecified) |  | inactive: 0.919%
64 | Oc1cccc(C=NN=C2c3ccccc3-c3ccccc32)c1 | inconclusive [activator, single point] | 
65 | O=C(NNC(=O)c1cccc(S(=O)(=O)N2CCCCC2)c1)c1ccccc1 |  | inactive: -7.91%
66 | CCOC(=O)c1[nH]c(C)c(CCC(=O)O)c1C | inconclusive [activator, partial curve, poor fit] | 
67 | O=C1NC(=O)C2(CCCCC2C2CCCCC2)N1 (stereo unspecified) |  | inactive: -2.76%
68 | O=C(NCCC1CCCCN1S(=O)(=O)c1ccc(F)cc1)C(=O)NCc1cccnc1 (stereo unspecified) |  | inactive: 8.88%
69 | Cc1ccc(C2(C)CC(C)(C)N(C(=O)CSc3nnc(C)s3)c3ccccc32)cc1 (stereo unspecified) | inconclusive [activator, single point] | 
70 | O=c1c2ccccc2nc(/C=C/c2cc(Br)ccc2O)n1CCCO | inconclusive [activator, single point] | 
71 | Cc1cc(Br)c(Cl)cc1NC(=O)CN1C(=O)C2C3CC(c4ccccc4)C(C3)C2C1=O (stereo unspecified) | inconclusive [activator, partial curve, poor fit] | 
